Measured values reported in the supplement of paper PMC3334620.
Whole data set: some 33,000 sequences, median “E-score (-0.5 to 0.5)” near -0.036, cut for the highest 2% near 0.37. Some of the results follow.

What follows are sequences tested against T1, Yer064c (UniProt P40041) (assay: PBM E-score (8-mer binding enrichment) (E-score (-0.5 to 0.5)); higher = stronger / more preferred TF binding; most listed sequences are background and not binding sites). Details: protein concentration: 200 nM; construct: GST-full length.
T1 sequence: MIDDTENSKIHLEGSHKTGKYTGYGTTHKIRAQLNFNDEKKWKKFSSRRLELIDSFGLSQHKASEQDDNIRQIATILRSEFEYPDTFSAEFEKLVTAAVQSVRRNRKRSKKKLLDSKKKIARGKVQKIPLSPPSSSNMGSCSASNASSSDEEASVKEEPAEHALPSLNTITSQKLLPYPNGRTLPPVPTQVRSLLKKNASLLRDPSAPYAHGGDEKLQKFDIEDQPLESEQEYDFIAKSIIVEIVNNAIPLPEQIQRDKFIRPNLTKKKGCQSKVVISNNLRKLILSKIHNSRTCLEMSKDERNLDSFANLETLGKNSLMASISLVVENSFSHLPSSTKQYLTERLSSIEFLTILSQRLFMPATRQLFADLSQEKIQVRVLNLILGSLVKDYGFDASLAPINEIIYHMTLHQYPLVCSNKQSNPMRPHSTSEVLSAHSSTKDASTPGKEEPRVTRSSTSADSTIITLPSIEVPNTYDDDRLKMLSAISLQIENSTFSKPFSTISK
Outline: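 GST-tagged yeast TFs (full-length or DNA-binding domain) were made by PURExpress in vitro transcription/translation and applied at about 100-200 nM to universal all-10-mer Agilent arrays. The arrays were made double-stranded by primer extension, on fresh or once-stripped slides. Bound protein was detected with fluorescent anti-GST, and scans were normalised with masliner. Each ungapped eight-base word, pooled with its reverse complement, received an E-score (modified Wilcoxon-Mann-Whitney statistic) from the Universal PBM Analysis Suite.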

Row | Sequence | PBM E-score
1 | ACGAATAG | -0.0529
2 | TATTACCA | 0.0455
3 | ACTCTCCG | 0.193
4 | ACCCACTG | -0.0391
5 | CAGTACCC | -0.0153
6 | GGCGTTCA | -0.296
7 | ACCTAAAA | -0.0104
8 | CGCATACA | -0.0361
9 | TATACAGA | 0.0513
10 | GCGGTAGA | -0.06
11 | ACTCTTAT | 0.241
12 | CATCGCAC | -0.211
13 | CGCGTCTC | -0.0783
14 | TCAGGACA | 0.172
15 | GACCGTTA | -0.0525
16 | TGCTCACA | -0.157
17 | AGTGTTTC | -0.0769
18 | AGTTGAAC | -0.0262
19 | ATACTCGG | -0.0364
20 | AAGAATAC | -0.059
21 | ACGAGGCG | -0.156
22 | GACAATTA | 0.116
23 | CGGAGTAG | -0.0167
24 | CCGAGGAG | -0.135
25 | AGATAGCT | -0.158

Row | Sequence | PBM E-score
26 | ACGAACAA | 0.0997
27 | AATTAGGG | -0.145
28 | ACTGTGTC | 0.184
29 | CGGGGACG | 0.0815
30 | GAAGAATA | 0.0388
31 | CACGCACA | -0.0101
32 | GCCACACA | -0.0274
33 | AGTGTAAC | -0.0983
34 | ACAATCAC | 0.351
35 | AGGGAGCC | -0.304
36 | CAATGGTA | -0.0289
37 | CTGGCTAA | 0.23
38 | GCAGGCGC | -0.191
39 | GCGCACGC | -0.252
40 | ATTCGAAC | 0.082
41 | GACTCTGA | 0.392
42 | GTCGGGGA | -0.0863
43 | ACTTACGC | 0.0287
44 | CGCCCCCG | -0.243
45 | TGGATGAA | -0.0193
46 | AAGGCCCC | -0.37
47 | ACCAACCG | -0.0719
48 | GCGAGGCC | -0.223
49 | GACCAGAA | -0.121
50 | GGGCCTTA | -0.297

Row | Sequence | PBM E-score
51 | ACGAATAA | 0.0659
52 | GCCGGGCC | -0.227
53 | AGCCCCCA | -0.337
54 | TCCTTGCA | -0.219
55 | AGGTCTCG | -0.024
56 | GTTTCGAA | 0.00031
57 | GCAGAACA | -0.227
58 | GTACGAAC | 0.127
59 | AAATGATT | 0.437
60 | AGATATCC | 0.192
61 | ATGTCAGA | -0.0808
62 | AGCGAACA | -0.0556
63 | ACGATCGC | -0.0227
64 | TCCGTGAA | -0.0302
65 | CTACTGGA | -0.00141
66 | ACCCCCTA | -0.029
67 | GTAAAGGA | 0.0918
68 | CACTTGAG | 0.242
69 | AGGGACAA | -0.21
70 | TAAGAGCA | -0.071
71 | ATGAGTGG | 0.193
72 | CCAAGGCC | -0.213
73 | GCTTAGAC | -0.0998
74 | GCGAATCA | 0.414
75 | CCCCTGGA | -0.176

Row | Sequence | PBM E-score
76 | ACGCGCAT | -0.0858
77 | CAATAAAG | 0.146
78 | CACGAACA | 0.163
79 | CATGTATA | 0.243
80 | CGCCGGGA | -0.237
81 | GCGCTCCC | -0.068
82 | ATGTTTGA | 0.119
83 | TCCTGGCA | -0.0985
84 | ATGCTGTG | -0.055
85 | ATAACGTA | -0.0408
86 | CAGATCGC | -0.107
87 | GGGTCACC | 0.117
88 | ATATCCCC | -0.231
89 | AGCGGGAG | -0.207
90 | AGGGCTAC | -0.261
91 | ATGGGTCC | 0.0288
92 | AGCAGCTC | -0.304
93 | CTTGGTCA | 0.119
94 | GCACGCTA | -0.27
95 | GCGGAAGA | -0.0456
96 | CGCTCATC | 0.0112
97 | ATTAGGTG | 0.152
98 | ACAGCTAA | 0.0381
99 | ACCTGGTA | -0.172
100 | GAAAAGCC | -0.21

Row | Sequence | PBM E-score
101 | ATCATACA | 0.236
102 | GAACAAGC | -0.357
103 | ATCATTAG | 0.255
104 | TATGGGCA | -0.217
105 | CGCGTGTC | 0.23
106 | GCGGCCCC | -0.242
107 | TGTTTAAA | 0.0935
108 | AGGTCAGG | -0.0683
109 | ATCTGGAC | -0.0442
110 | ATTTTAGC | 0.0115
111 | GGATTTCA | -0.0555
112 | CACCTGTC | 0.0814
113 | AGCACTCC | -0.212
114 | GGTATTCA | 0.0856
115 | GTCTTATA | 0.189
116 | ACAGGGCA | -0.128
117 | CAGATAAG | 0.0282
118 | GTCCCGCA | -0.148
119 | GCGCTGCA | -0.0789
120 | CTGGAACA | -0.0557
121 | CGCGCTGC | -0.286
122 | CCCGCTGC | -0.00295
123 | AGTCACTC | 0.467
124 | AGTTGATA | 0.0544
125 | CTGAACAG | -0.0315

Row | Sequence | PBM E-score
126 | GACTCACA | 0.472
127 | CTCGATCA | -0.0529
128 | ACGCGAAA | -0.0513
129 | ATCTAGTC | 0.352
130 | CGTTATGA | -0.00798
131 | AGCTAAAC | -0.111
132 | CGTCCTCC | -0.354
133 | AAACTTAC | -0.0145
134 | AAAACTGT | -0.081
135 | CTGACGAA | -0.0302
136 | AGAGTCGA | 0.291
137 | GCACTGCA | -0.0358
138 | GACGCTAA | -0.0747
139 | CCCCACCA | -0.128
140 | ATGGGATC | -0.133
141 | ACGGTCCC | -0.134
142 | AGCAAACC | 0.00536
143 | CGGTCACG | -0.137
144 | GCCGGCTA | -0.195
145 | TCCGATCA | 0.0392
146 | GTCAGTGA | 0.31
147 | ACGACGGC | -0.173
148 | CACTACGG | -0.19
149 | ACATATAT | -0.099
150 | ACTTTGCC | -0.159

Row | Sequence | PBM E-score
151 | AGTGACGG | -0.0747
152 | GTATATAA | 0.146
153 | ATTGGACG | -0.309
154 | AGAGAAAA | 0.101
155 | ATTTCGGC | 0.0774
156 | CCCTTTGC | -0.196
157 | CAGCTGCC | -0.0456
158 | AGTGTTTA | 0.0674
159 | AGCCAAGA | -0.0541
160 | AACTTAGC | -0.162
161 | ACAATCCA | 0.0182
162 | AGATAAAG | 0.0643
163 | ACACGAGC | -0.0577
164 | ATGACTCG | 0.491
165 | ATTTAAAT | 0.256
166 | GGATTGCC | -0.184
167 | CAAGCATG | 0.0735
168 | AATCGGGC | -0.0426
169 | CAATTCAA | 0.0786
170 | ACCTTAAT | -0.0665
171 | CTAACGGC | 0.11
172 | CATTCGCG | 0.0522
